According to article PMC6436656:
These are yes or no findings as the source states them, for the method shown. In cells and extracts the contact can be indirect. Some results given as binding are weak or reduced against the parent protein; the word gives no strength.

The chains behind the UniProt entries cited, without tags or fusion partners. Where a name states a change or a piece, a line headed by the entry shows the natural chain unless it says otherwise. A line that says so, or that is headed by a name, gives the form on record, which may keep a tag or linker. Residues count along the entry.
UniProt Q9HC97: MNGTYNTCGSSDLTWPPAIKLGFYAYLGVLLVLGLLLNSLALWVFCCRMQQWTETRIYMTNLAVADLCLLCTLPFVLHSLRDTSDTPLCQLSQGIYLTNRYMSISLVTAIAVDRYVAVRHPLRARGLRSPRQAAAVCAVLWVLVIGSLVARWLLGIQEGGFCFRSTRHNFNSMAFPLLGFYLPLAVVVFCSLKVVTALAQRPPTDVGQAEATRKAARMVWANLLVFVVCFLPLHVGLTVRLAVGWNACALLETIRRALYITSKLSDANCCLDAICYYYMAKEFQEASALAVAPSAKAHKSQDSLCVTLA
UniProt Q9ES90: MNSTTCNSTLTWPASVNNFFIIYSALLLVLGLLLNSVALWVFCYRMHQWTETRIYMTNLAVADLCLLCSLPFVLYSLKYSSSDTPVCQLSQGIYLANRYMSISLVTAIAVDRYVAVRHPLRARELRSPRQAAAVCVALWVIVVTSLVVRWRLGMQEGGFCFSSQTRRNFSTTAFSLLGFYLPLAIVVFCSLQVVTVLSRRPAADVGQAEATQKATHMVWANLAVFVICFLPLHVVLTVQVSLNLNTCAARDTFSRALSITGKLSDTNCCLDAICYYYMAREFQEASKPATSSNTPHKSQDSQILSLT
UniProt Q14344: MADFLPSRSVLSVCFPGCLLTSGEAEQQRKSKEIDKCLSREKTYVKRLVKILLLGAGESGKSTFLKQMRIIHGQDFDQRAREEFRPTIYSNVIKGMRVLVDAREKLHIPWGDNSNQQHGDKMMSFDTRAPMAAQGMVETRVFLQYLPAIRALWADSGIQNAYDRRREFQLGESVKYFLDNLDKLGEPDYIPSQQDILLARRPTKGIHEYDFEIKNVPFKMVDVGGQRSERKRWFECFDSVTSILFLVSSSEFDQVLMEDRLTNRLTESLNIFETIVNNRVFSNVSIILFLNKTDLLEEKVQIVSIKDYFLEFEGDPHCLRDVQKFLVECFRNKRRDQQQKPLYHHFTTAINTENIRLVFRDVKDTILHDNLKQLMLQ
final 27 aa of Gα13 with G.H5.17 His and G.H5.18 Asp swapped for Gln and Glu of Gα12 (hGPR35 SPASM sensor) (Q14344, form named): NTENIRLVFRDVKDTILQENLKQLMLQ
final 27 aa of Gα13 with G.H5.22 Gln replaced by Asp (hGPR35 SPASM sensor) (Q14344, form named): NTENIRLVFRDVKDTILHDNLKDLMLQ
full-length human Gα13 with Nanoluc inserted after Arg128, G.H5.22 Gln converted to Asp (Q14344, form named): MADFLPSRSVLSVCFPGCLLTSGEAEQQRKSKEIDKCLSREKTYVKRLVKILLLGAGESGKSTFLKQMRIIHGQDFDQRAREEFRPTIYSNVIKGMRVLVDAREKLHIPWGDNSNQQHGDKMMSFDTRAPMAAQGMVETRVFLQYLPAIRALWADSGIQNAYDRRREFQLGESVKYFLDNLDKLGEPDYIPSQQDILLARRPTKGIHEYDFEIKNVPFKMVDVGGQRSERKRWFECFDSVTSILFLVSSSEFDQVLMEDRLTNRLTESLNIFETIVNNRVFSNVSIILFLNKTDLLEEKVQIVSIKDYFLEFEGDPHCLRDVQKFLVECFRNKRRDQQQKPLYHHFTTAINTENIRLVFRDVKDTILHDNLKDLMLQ
final 27 aa of Gα13 with G.H5.22 Gln and G.H5.23 Leu replaced by Asp and Ile of Gα12 (hGPR35 SPASM sensor) (Q14344, form named): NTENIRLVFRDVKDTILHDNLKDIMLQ
final 27 aa of Gα12, G peptide of the hGPR35-Gα12 SPASM sensor (Q03113, residues 355-381): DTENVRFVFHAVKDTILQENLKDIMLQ
final 27 aa of Gα12 with G.H5.23 Ile replaced by Leu (hGPR35 SPASM sensor) (Q03113, form named): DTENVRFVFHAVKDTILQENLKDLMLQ
final 27 aa of Gα12 with G.H5.22 Asp and G.H5.23 Ile replaced by Gln and Leu of Gα13 (hGPR35 SPASM sensor) (Q03113, form named): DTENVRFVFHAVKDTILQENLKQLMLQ
final 27 aa of Gα12 with G.H5.22 Asp replaced by Gln (hGPR35 SPASM sensor) (Q03113, form named): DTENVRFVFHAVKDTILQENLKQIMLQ
final 27 aa of Gα12 with G.H5.17 Gln and G.H5.18 Glu swapped for His and Asp of Gα13 (hGPR35 SPASM sensor) (Q03113, form named): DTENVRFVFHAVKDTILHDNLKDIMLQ
final 27 aa of Gαq, G peptide of the hGPR35-Gαq SPASM sensor (P50148, residues 333-359): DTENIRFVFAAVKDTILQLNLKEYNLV
final 27 aa of Gαq with G.H5.23 Tyr replaced by Leu (hGPR35 SPASM sensor) (P50148, form named): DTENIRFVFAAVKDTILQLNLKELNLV
UniProt P32121: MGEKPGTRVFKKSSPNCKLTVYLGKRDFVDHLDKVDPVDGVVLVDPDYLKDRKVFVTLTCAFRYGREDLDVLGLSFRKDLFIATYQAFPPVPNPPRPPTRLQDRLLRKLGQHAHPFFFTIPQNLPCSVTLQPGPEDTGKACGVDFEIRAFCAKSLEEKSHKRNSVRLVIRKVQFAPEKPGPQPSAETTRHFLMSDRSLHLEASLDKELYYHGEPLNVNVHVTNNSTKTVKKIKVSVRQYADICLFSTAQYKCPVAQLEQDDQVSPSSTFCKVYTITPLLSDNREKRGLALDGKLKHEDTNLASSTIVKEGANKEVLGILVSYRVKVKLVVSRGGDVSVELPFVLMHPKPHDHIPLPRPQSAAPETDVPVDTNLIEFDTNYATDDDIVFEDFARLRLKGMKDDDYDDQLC

Key:
[1] = molecular target: hGPR35 tagged at the C terminus with enhanced yellow fluorescent protein (human) (UniProt Q9HC97); test: FRET or BRET; intermolecular BRET between full-length Gα13 with internal Nanoluc and hGPR35-eYFP, coexpressed transiently in HEK293 cells lacking Gα12 and Gα13; varying concentrations of zaprinast or lodoxamide
[2] = molecular target: human GPR35 (GPR35a splice variant), receptor part of the hGPR35 SPASM sensors (human) (UniProt Q9HC97); test: FRET or BRET; endpoint read of the single-chain SPASM sensor (Nanoluc to mCitrine) in living Flp-In T-REx 293 cells, stable, doxycycline-induced; 5 min after varying concentrations of GPR35 agonists; fold change over vehicle
[3] = molecular target: human GPR35 (GPR35a splice variant), receptor part of the hGPR35 SPASM sensors (human) (UniProt Q9HC97); test: FRET or BRET; kinetic read of the single-chain SPASM sensor (Nanoluc to mCitrine) in living Flp-In T-REx 293 cells, stable, doxycycline-induced; zaprinast (EC80, 16 uM human, 1 uM mouse) added at 30 s, read over 6 min; 37°C, HBSS with 10 mM HEPES; CID2745687 10 uM added at 120 s in some studies
[4] = molecular target: mouse GPR35, receptor part of the mGPR35 SPASM sensors (mouse) (UniProt Q9ES90); test: as above
[5] = molecular target: human GPR35 (GPR35a splice variant), receptor part of the hGPR35 SPASM sensors (human) (UniProt Q9HC97); test: FRET or BRET; endpoint read of the single-chain SPASM sensor (Nanoluc to mCitrine), sensors transiently expressed (HEK293-T); varying concentrations of zaprinast, lodoxamide, pamoic acid
[6] = molecular target: human GPR35 (GPR35a splice variant), receptor part of the hGPR35 SPASM sensors (human) (UniProt Q9HC97); test: FRET or BRET; single-chain hGPR35 SPASM sensors with the C-terminal 27 aa of Gαq, G.H5.23Leu Gαq or Gα13; varying concentrations of lodoxamide or bufrolin; cells and mode of expression not told for this panel
[7] = molecular target: hGPR35 tagged at the C terminus with enhanced yellow fluorescent protein (human) (UniProt Q9HC97); test: FRET or BRET; intermolecular BRET between β-arrestin-2-Renilla luciferase and hGPR35-eYFP, coexpressed transiently in HEK293-T cells; agonist-induced, coelenterazine-h

Substance | binding [2] | other results
full-length human Gα13 with Nanoluc inserted after Arg128, wild type (from UniProt Q14344 1-377) |  | binding [1]: binds
final 27 aa of Gα12 with G.H5.23 Ile replaced by Leu (hGPR35 SPASM sensor) (from UniProt Q03113 355-381) (domain or fragment) | binds | 
final 27 aa of Gαq, G peptide of the hGPR35-Gαq SPASM sensor (from UniProt P50148 333-359) (domain or fragment) |  | binding [6]: no binding
β-arrestin-2 tagged with Renilla luciferase (from UniProt P32121 1-409) |  | binding [7]: binds
final 27 aa of Gα12 with G.H5.22 Asp replaced by Gln (hGPR35 SPASM sensor) (from UniProt Q03113 355-381) (domain or fragment) | binds | 
final 27 aa of Gαq with G.H5.23 Tyr replaced by Leu (hGPR35 SPASM sensor) (from UniProt P50148 333-359) (domain or fragment) |  | binding [6]: binds
full-length human Gα13 with Nanoluc inserted after Arg128, G.H5.22 Gln converted to Asp (from UniProt Q14344 1-377) |  | binding [1]: binds
final 27 aa of Gα13 with G.H5.22 Gln and G.H5.23 Leu replaced by Asp and Ile of Gα12 (hGPR35 SPASM sensor) (from UniProt Q14344 351-377) (domain or fragment) | binds weakly | 

More lines, main results first:

binding [2] | Substance | other results
binds | final 27 aa of Gα12 with G.H5.22 Asp and G.H5.23 Ile replaced by Gln and Leu of Gα13 (hGPR35 SPASM sensor) (from UniProt Q03113 355-381) (domain or fragment) | 
binds | final 27 aa of Gα13 with G.H5.17 His and G.H5.18 Asp swapped for Gln and Glu of Gα12 (hGPR35 SPASM sensor) (from UniProt Q14344 351-377) (domain or fragment) | 
binds | final 27 aa of Gα13, G peptide of the GPR35-Gα13 SPASM sensors (from UniProt Q14344 351-377) (domain or fragment) | binding [3]: binds; binding [4]: binds; binding [5]: binds
binds | final 27 aa of Gα13 with G.H5.22 Gln replaced by Asp (hGPR35 SPASM sensor) (from UniProt Q14344 351-377) (domain or fragment) | 
binds weakly | final 27 aa of Gα12, G peptide of the hGPR35-Gα12 SPASM sensor (from UniProt Q03113 355-381) (domain or fragment) | binding [5]: binds weakly
binds weakly | final 27 aa of Gα12 with G.H5.17 Gln and G.H5.18 Glu swapped for His and Asp of Gα13 (hGPR35 SPASM sensor) (from UniProt Q03113 355-381) (domain or fragment) | 
